Test results as given in PubChem BioAssay AID686978 (National Center for Advancing Translational Sciences (NCATS), 2013).
Hit rate of the full screen: of about 420,000 compounds, about 64,000 (15%) were called active. Inconclusive results, whose numbers are uncertain, are shown with a selection of clear calls. Calls come from the whole dose curve; as a rule, active = well fitted inhibition curve with a large enough effect; inconclusive = small, poorly fitted or top-dose-only effect; inactive = flat fitted curve, though single readings scatter. Potencies of inconclusive entries are left out as doubtful fits.

Test: qHTS for Inhibitors of human tyrosyl-DNA phosphodiesterase 1 (TDP1): qHTS in cells in absence of CPT; note: nearly all actives have a fitted effect of over 55% in size
Details: DT40 Tdp1-/- hTDP1 cells, no CPT, ATP luminescence, 48 h; activity change, negative = growth inhibition: at 46.2 µM (top of the series)
Outline: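 No-CPT arm: Tdp1-/-;hTDP1 DT40 cells (400/well) plus compounds, incubated ≥48 hr at 37 °C. Readout CellTiter-Glo luminescence.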
% is set by controls: 0 for no effect and ±100 for the full control effect; potency is the fitted concentration of half-maximal effect; tags give direction and shape of the fitted curve.

**Q.** For `COC(=O)c1c(NC(=O)CSc2ncnc3c2cnn3-c2ccccc2Cl)sc2c1CCCC2`, which Potency is on record?
**A.** Its Potency is inconclusive [inhibitor, single point].

**Q.** For `CNC(=O)c1c(O)c2cccc3c2n(c1=O)CCC3`, which Potency is on record?
**A.** Its Potency is inconclusive [inhibitor, single point].

**Q.** Which activity change, negative = growth inhibition does the source give for `Cc1cccc(/C=N/N2CCN(c3ccccc3)CC2)c1` here?
**A.** Its activity change, negative = growth inhibition is inconclusive: -18.1% [inhibitor].

**Q.** Which “activity change, negative = growth inhibition” value does the source give for `C=CCn1c(SCC(=O)NC23CC4CC(CC(C4)C2)C3)nc(O)cc1=O` here?
**A.** Its value is inactive: 4.5%.

**Q.** For `CN1CCN(c2ccc(S(=O)(=O)N3CCCCC3)cc2NC(=O)/C=C/c2ccc(OC(F)F)cc2)CC1`, which “activity change, negative = growth inhibition” value is on record?
**A.** Its value is inactive: -85.7%.

**Q.** With `Cc1cc(Oc2ccc(C(C)(C)C)cc2)nc(N2CCOCC2)n1` as the compound, how does the Potency read?
**A.** The Potency was inconclusive [inhibitor, single point].

**Q.** Which “activity change, negative = growth inhibition” value does the source give for `C=CCOc1ccccc1CN1CCC(n2nccc2NC(=O)C2CC2)CC1` here?
**A.** The value was inactive: 0.196%.

**Q.** With `CCCN1CCC(N2CCCC(C(=O)O)C2)CC1` (centres undefined) as the compound, how does the “activity change, negative = growth inhibition” value read?
**A.** The value was inactive: 4.8%.

**Q.** Which Potency does the source give for `Cc1cc(-c2cc(C(=O)NC3CCCC3)on2)nc(NC2CCCC2)n1` here?
**A.** Its Potency is inconclusive [inhibitor, single point].

**Q.** Which Potency does the source give for `CCN(CC)CCNC(C(=O)Nc1ccc([N+](=O)[O-])cc1Br)c1ccccc1` (centres undefined) here?
**A.** The Potency was inconclusive [inhibitor, single point].

**Q.** Which Potency does the source give for `CC(OC(=O)c1oc2ccccc2c1CSC1CCCCC1)C(=O)NC(N)=O` (centres undefined) here?
**A.** The Potency was inconclusive [inhibitor, single point].

**Q.** With `CC(C)(C)C(=O)CSc1nnc(Nc2ccccc2)s1` as the compound, how does the “activity change, negative = growth inhibition” value read?
**A.** Its value is inactive: -26.4%.

**Q.** Which Potency does the source give for `COC(=O)C1=C(C(=O)OC)[C@@H]2N(C)c3ccccc3[C@@]23C[C@@H](C(=O)OC)N(C(=O)c2cccs2)C3=N1` here?
**A.** Its Potency is inconclusive [inhibitor, single point].

**Q.** Which Potency does the source give for `NC(=O)c1ccsc1NC(=O)COC(=O)Cc1cccc2ccccc12` here?
**A.** The Potency was active: 10.3 µM.

**Q.** Which Potency does the source give for `CNC(=O)Cn1ncc2c(C)n(Cc3ccc(C)cc3)c(C)c2c1=O` here?
**A.** Its Potency is inconclusive [inhibitor, single point].

**Q.** With `COC(=O)C[C@@H]1OC[C@H](Cc2ccccc2)N1S(=O)(=O)c1ccc(C)cc1` as the compound, how does the Potency read?
**A.** The Potency was inconclusive [inhibitor, single point].

**Q.** For `Cc1cc(C)cc(NC(=O)NC2CCN(CC(=O)Nc3cccc(Cl)c3C)CC2)c1`, which Potency is on record?
**A.** Its Potency is inconclusive [inhibitor, partial curve].

**Q.** With `Cn1nc(C(F)(F)F)c(-c2cccc(C(F)(F)F)c2)c1NC(=O)CSCC(=O)O` as the compound, how does the “activity change, negative = growth inhibition” value read?
**A.** The value was inactive: 5.92%.

**Q.** Which Potency does the source give for `COc1ccc(-c2cc(C(=O)N3CCN(c4ncccn4)CC3)c3ccccc3n2)cc1OC` here?
**A.** The Potency was inconclusive [inhibitor, partial curve].
